# Test results reported in PubChem BioAssay (Tox21).
# Inconclusive means that the source gave no clear call. Such entries were picked first, then a sample of the others. A potency beside an inconclusive call is a rough fit, not a confirmed value. Calls of active or inactive are those of the source. Calls come from the whole dose curve; as a rule, active = well fitted activation curve with a large enough effect in the signal ratio in the repeat runs (not every such curve was filed as active); inconclusive = weak or mixed curves, or effect the other way; inactive = no such curve, though single readings can be large or run the other way; the % refers to the signal ratio.
# Assay: qHTS assay for small molecule agonists of the antioxidant response element (ARE) signaling pathway (AID 743202)
# Details: HepG2 ARE-bla reporter, beta-lactamase FRET, 16 h; activation: at 73.3 µM (top of the series) unless noted
# In short: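 ARE-bla HepG2 cells (beta-lactamase reporter under the antioxidant response element), plated 5 hours, then exposed to compounds 16 hours at 37 C. LiveBLAzer B/G FRET substrate added for 2 hours at room temperature; fluorescence intensity read.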
# % is set by controls: 0 for no effect and ±100 for the full control effect; potency is the fitted concentration of half-maximal effect; tags give direction and shape of the fitted curve.
Compound,activation,Potency
CC1=CC(C)(C)Nc2ccccc21,inconclusive: -35.3%,–
CC(C)(C)[C@@H](O)[C@@H](Cc1ccc(Cl)cc1)n1cncn1,inconclusive: 15.7%,–
Cc1ccc(/C=N/n2c(-c3ccccc3)csc2=S)cc1,–,inconclusive: 26.6 µM
C(/C=C/C=C/Nc1ccccc1)=Nc1ccccc1,inconclusive: 36.8%,–
COc1ccc(C(=O)c2cccc(O)c2)c(OC)c1,–,inconclusive: 68.5 µM
CN(C)C(=O)NC1(c2ccccc2)CCN(CCC[C@]2(c3ccc(Cl)c(Cl)c3)CCCN(C(=O)c3ccccc3)C2)CC1,inconclusive: 1.9% [at 34.3 µM],–
Cc1ccccc1C(OCCN(C)C)c1ccccc1 (stereo unspecified),inconclusive: -7.69%,"inconclusive: 34.4 µM [falling, partial curve]"
OCc1ccccn1,–,active: 11.9 µM
C[C@@H]1C[C@H]2[C@@H]3CCC4=CC(=O)C=C[C@]4(C)[C@@]3(F)[C@@H](O)C[C@]2(C)[C@H]1C(=O)CO,–,"inconclusive: 18.8 µM [rising, partial curve, poor fit]"
CCN(CC)CCOC(=O)C(c1ccccc1)C1CCCCC1 (stereo unspecified),–,inactive
